# This is one part of the list.
# Tested on: T1, C. trachomatis L2/434/Bu expressing GFP (CTL2-GFP)
# T1 construct: L2/434/Bu GFP intracellular growth in HeLa cells
# Design: species or system HeLa; C. trachomatis total inclusion area by high-content imaging, normalised to DMSO
# Conditions: total inclusion area; 28.5 h, 10 µM; inhibitor
# How it was run: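 High-content images of fixed, Hoechst-stained infected cultures supply inclusion area and count (growth) plus nuclei number (viability), complementing bulk GFP/resorufin fluorescence. MIC determination is unchanged from the primary assay.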
row,Compound,% of control remaining
1,CC(C)n1cccc1CN[C@@H]1CCC(=O)N[C@H]1c1cccc(F)c1 [CBK282908],101.646
2,N#CCCn1cc(C(=O)n2nnc3ccccc32)c(-c2cc3ccccc3o2)n1 [CBK268073],99.1927
3,COCCCNC(=O)Cn1c(-c2ccc(F)cc2)cc2cccnc21 [CBK285385],62.9977
4,COc1ccc(C(=O)OC(C)(C)C)c(-c2nccnc2N2CCCN(C)CC2)c1 [CBK037360],142.08
5,C=CCn1cc(CN2CCC(O)(c3ccccc3C)CC2)c(C)n1 [CBK282581],110.352
6,c1csc(CNc2cncc(-c3ccncc3)n2)c1 [CBK065238],72.4861
7,CCOC(=O)c1sc(-c2cccc(C(F)(F)F)c2)nc1O [CBK075064],93.9465
8,COc1ccc(-c2csc(NC(=O)C(C)C)c2C(=O)O)cc1 [CBK286622],113.513
9,FC(F)(F)c1ccc2c(c1)N(CCCN1CCN(C34CC5CC(CC(C5)C3)C4)CC1)c1ccccc1S2 [CBK261938],85.4016
10,COc1ccc(CSCc2n[nH]c(=O)[nH]2)cc1[N+](=O)[O-] [CBK267425],95.6255
11,CC(C(=O)NC1(C#N)CCCCC1)N1CCOC(Cn2cccn2)C1 (centres unmarked) [CBK305337],84.5837
12,Fc1ccc(-c2nccnc2OCc2ccc3c(c2)OCO3)cc1 [CBK106896],103.526
13,COC[C@H]1CCCN1C(=O)Cn1[nH]c(C)c(Cc2c(Cl)cccc2Cl)c1=O [CBK115407],103.715
14,CCOc1cc(CN2CCN(C/C=C/c3ccccc3)CC2)ccc1OC [CBK261573],87.5138
15,COc1ccccc1-c1ccc(CC2(C(=O)NC3CCCCC3)CCOCC2)cc1 [CBK286515],103.594
16,COc1cc(CNc2nc[nH]n2)ccc1OCc1ccc(C)cc1 [CBK269768],101.889
17,O=C(CN1C(=O)N2CCN=C2c2ccc(Cl)cc21)NCC1CC1 [CBK282877],100.031
18,CCN1CCN(c2nccnc2OCc2cccnc2)CC1 [CBK083142],69.1834
19,COc1ccc(OC)c(NC(=O)CC2NCCNC2=O)c1 (centres unmarked) [CBK266477],78.7168
20,O=C(CSc1nnc2ccccn12)Nc1ccccc1 [CBK287328],68.0424
21,CSCCC(C(=O)O)N1C(=O)c2ccccc2C1=O (centres unmarked) [CBK218448],102.248
22,Cc1cc(C)c2c(N)c(C(=O)Nc3ccc(Br)cc3)sc2n1 [CBK072019],33.4761
23,CC(Sc1ncc(-c2ccc(F)cc2)n1Cc1ccccc1)C(=O)NC1CC1 (centres unmarked) [CBK297105],79.4888
24,CC(C)c1cccc2c1OC(C(C)C)C(=O)N2 (centres unmarked) [CBK009286],89.4741
25,CCOc1ccc(NC(=O)C2CCC(C)(C(=O)O)C2(C)C)cc1 (centres unmarked) [CBK295665],55.4826
26,Cc1cc2c(N3CCN(Cc4nc5ccccc5[nH]4)CC3)ncnc2s1 [CBK268213C],81.3515
27,CC(C)[C@H](CO)Nc1nc(-c2ccc(N3CCOCC3)cc2)cn2ccnc12 [CBK066151],84.4428

row,Compound,% of control remaining
1,CCCNc1nc(-c2ccc(F)c(F)c2)cn2ccnc12 [CBK066573],93.9236
2,N#Cc1ccccc1N1CCN(c2cncc(-c3cccs3)n2)CC1 [CBK065656],105.272
3,CN(C)CCN(C)C(=O)c1ccc(-c2ccco2)nc1N(C)C [CBK106078],91.2565
4,Clc1ccc(COc2cccc3cccnc23)cn1 [CBK002718],87.3307
5,Cc1cc(NC(=O)c2nn3c(C(F)(F)F)cc(-c4ccccc4)nc3c2Cl)nn1CC(=O)N1CCOCC1 [CBK268209],89.1588
6,O=C(NC[C@H]1O[C@@H](CC(=O)N2CCN(c3ccccc3)CC2)[C@H](O)[C@@H]1O)c1ccccc1 [CBK288920],85.9033
7,COc1ccc(CN(CCN(C)C)C(=O)NCc2ccc(Cl)cc2)cc1OC [CBK159303],95.5787
8,O=C(NCCCN1CCCC1)Nc1ccccc1[N+](=O)[O-] [CBK267959],102.919
9,O=C(CCn1cccn1)NC(Cc1ccsc1)c1cccnc1 (centres unmarked) [CBK285393],101.451
10,Cc1cccc(C(=O)Nc2cccc(OCC(=O)O)c2)c1 [CBK268599],121.4
11,CCC(=O)N1CCCc2cc(C(O)CN3CCCC(C)C3)ccc21 (centres unmarked) [CBK283049],108.876
12,CCCNC(=O)CN1CCC(NC(=O)Cn2cc(Br)ccc2=O)CC1 [CBK305665],62.1442
13,OC(CN1CCN(C(c2ccccc2)c2ccccc2)CC1)Cn1c2ccccc2c2ccccc21 (centres unmarked) [CBK262730],75.7657
14,O=C(O)CC1SC(Nc2cccc(Cl)c2)=NC1=O (centres unmarked) [CBK131683],85.3439
15,O=C1N(Cc2cccc3ccccc23)c2ccccc2C1(c1ccc(O)cc1)c1ccc(O)cc1 [CBK261410],65.085
16,O=C(O)CCN1C(=O)c2ccc(Oc3ccc(NC(=O)c4ccc(Cl)c(Cl)c4)cc3)cc2C1=O [CBK267400],89.6341
17,O=C(N[C@@H](Cn1cc(Cl)c(=O)[nH]c1=O)C(=O)O)C1CCCC1 [CBK289658],96.8804
18,Cc1nc2c(c(=O)[nH]1)CCN(Cc1cccc(Oc3ccccc3)c1)C2 [CBK283989],95.1335
19,CC(=O)N1CCc2c([nH]c3ccccc23)[C@@]12CCN(Cc1ccc(F)cc1)C2 [CBK074955],92.2944
20,Cc1c(CN2CCC3(CC2)CC(c2ccccc2)CN(C)C3)cnn1C (centres unmarked) [CBK306666],66.9057
21,Cc1ccc(N(C(C)C(=O)Nc2ccccc2C(F)(F)F)S(C)(=O)=O)cc1 (centres unmarked) [CBK268796],71.7842
22,O=C(NCc1ccncc1)c1ncoc1-c1ccc(F)cc1 [CBK282354],80.8481
23,CCn1c(=O)n(CC(=O)NCc2ccccc2F)c2cccnc21 [CBK283890],76.5153
24,COc1ccccc1OCCOc1c(Cl)cc(/C=C2\SC(=S)NC2=O)cc1Cl [CBK264848],100.109
25,CCn1cnc2sc(-c3ccccc3)cc2c1=O [CBK287952],70.2033
26,C/C(=N\NC(=O)CCC(=O)Nc1ccc(I)cc1)c1ccc(O)cc1O [CBK261971],77.4742
27,CCn1c(N2CCC(C(=O)NC(C)C)CC2)nc2ccccc21 [CBK283982],73.3336

row,Compound,% of control remaining
1,Cc1csc2[nH]c(C(C)(C)C)c[n+]12 [CBK025384B],52.1173
2,OCCN(Cc1cccs1)Cc1c[nH]nc1-c1cccs1 [CBK282599],91.7158
3,N#CC1C(=S)NC2=C(CCCC2)C12CCCCC2 (centres unmarked) [CBK288493],108.252
4,O=C(NCc1nnc(-c2cccs2)o1)c1cccc(F)c1F [CBK284634],53.2172
5,COc1cc(/C=C/CN2CCC(C(=O)NC(C)c3ccc(F)cc3)CC2)ccc1OC(C)=O (centres unmarked) [CBK148061],109.301
6,Cc1ccc(-c2nnc(CN3C(=O)C4(CC(=O)N(C)C4=O)c4cc(F)ccc43)o2)cc1 (centres unmarked) [CBK075453],107.269
7,CCCCN1C(=S)SC(C)(C)C1N(O)C(=O)C1CCCCC1 (centres unmarked) [CBK008915],84.079
8,CC(N)(Cc1ccc(Oc2ncc(C(F)(F)F)cc2Cl)cc1)C(=O)O (centres unmarked) [CBK161647],93.3554
9,OCCN1CCN(CCCc2ccccc2)CC1 [CBK261872],94.6917
10,O=[N+]([O-])c1ccc(Oc2cccc(Cl)c2Cl)c(C(F)(F)F)c1 [CBK002594],41.471
11,CO/N=C(\C(=O)O)c1cn2cccnc2n1 [CBK262252],95.3508
12,Cc1cc(C)c(S(=O)(=O)Nc2nnc(C)s2)c(C)c1 [CBK045497],79.5319
13,COc1cc(C(=O)N2CCCC3(CC(=O)c4ccc(C)cc4O3)C2)cc(OC)c1C (centres unmarked) [CBK168239],97.6053
14,COc1ccc(C2NCCc3c2[nH]c2ccccc32)cc1CSc1nc2ccccc2s1 (centres unmarked) [CBK264303C],65.3216
15,Cc1nnc(SCc2nnnn2-c2ccccc2)nc1O [CBK266302],128.179
16,Cc1nn(C)c2c1c(=O)n(C)c(=O)n2C [CBK026140],60.6155
17,Cc1cc(OC(=O)C2CCC(CNC(=O)OC(C)(C)C)CC2)c2c3c(c(=O)oc2c1)CCC3 (centres unmarked) [CBK083583],103.446
18,Clc1ccccc1-c1nccnc1OCCOc1ccccc1 [CBK107011],92.0813
19,COc1cccc(C(O)CN2CCC3(CC2)CC(O)c2cc(C)ccc2O3)c1 (centres unmarked) [CBK286338],116.154
20,Cc1ccc(OCC(=O)NC(=S)Nc2ccc(Cl)c(-c3nc4ncccc4o3)c2)cc1 [CBK263930],88.9565
21,COc1cc2c(c(OC)c1OC)C1(CCN(Cc3ccc(S(C)(=O)=O)cc3)CC1)NC(=O)C2 [CBK040014],95.3801
22,Cc1cc(C)n(CCCn2cncc2-c2cnn(C)c2)n1 [CBK281771],79.7476
23,Cc1ccc(S(=O)(=O)NCCCC(=O)Oc2cc3oc(=O)c4c(c3cc2Cl)CCC4)cc1 [CBK264967],104.115
24,COc1ccc(Br)cc1CNCCCN1CCOCC1 [CBK278208C],120.047
25,O=S(=O)(c1ccc(Cl)c(S(=O)(=O)N2CCOCC2)c1)c1ccc(Cl)c(S(=O)(=O)N2CCOCC2)c1 [CBK261369],91.3628
26,COc1ccc(C(NC(=O)NNC(=O)CCC(=O)c2ccc(F)cc2)c2ccccc2C)cn1 (centres unmarked) [CBK083659],123.252

# From PMC12040169 (PLOS Biology, 2025)
